Test results reported in PubChem BioAssay AID624417 (National Center for Advancing Translational Sciences (NCATS), 2012).
Among all 410,000 compounds or so, about 6,400 (1.6%) were called active. The shares of active, inactive and inconclusive entries below differ from those in the screen. The call rests on the fitted dose curve; in most records, active means well fitted inhibition curve with a large enough effect; inconclusive means small, poorly fitted or top-dose-only effect; inactive means no such curve, though single readings can be large or run the other way. No potency is given beside an inconclusive call; the fits are too rough.
Further: nearly all actives have a fitted effect of over 55% in size.
On the % scale 0 is the no-effect control and ±100 the full control effect; potency means the concentration at half of the fitted maximal effect; tags describe the fitted curve by direction and shape.

Each compound was assayed against Glucagon-like peptide 1 receptor (Homo sapiens) (UniProt P43220) (assay: qHTS of GLP-1 Receptor Inverse Agonists (Inhibition Mode)). Details: HEK293 GLP-1R CRE-luciferase, luminescence, 24 h, GLP-1R form is constitutively active; activity change, negative = inhibition: at 38.3 µM (top of the series) unless noted.
UniProt P43220, sequence (P43220 whole entry, looked up): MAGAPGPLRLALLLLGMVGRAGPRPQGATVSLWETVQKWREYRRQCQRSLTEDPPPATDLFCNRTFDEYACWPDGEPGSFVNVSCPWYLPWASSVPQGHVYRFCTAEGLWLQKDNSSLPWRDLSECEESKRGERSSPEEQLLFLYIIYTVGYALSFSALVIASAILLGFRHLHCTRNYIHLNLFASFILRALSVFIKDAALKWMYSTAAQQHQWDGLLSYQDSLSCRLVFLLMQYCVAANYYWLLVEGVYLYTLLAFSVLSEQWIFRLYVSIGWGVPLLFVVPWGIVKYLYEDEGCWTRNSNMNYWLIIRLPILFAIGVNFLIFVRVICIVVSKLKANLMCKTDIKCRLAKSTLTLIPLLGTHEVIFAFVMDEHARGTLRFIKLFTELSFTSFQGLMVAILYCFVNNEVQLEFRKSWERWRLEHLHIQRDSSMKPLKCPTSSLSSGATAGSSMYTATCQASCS
How it was run: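 Luminescence readout: a drop in cAMP-driven luciferase signal flags inverse agonism at a constitutively active GLP-1R stably expressed in HEK293. Compound exposure lasted 24 hr at 37 deg C, 5% CO2.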
In the case of `O=C(c1cccc(S(=O)(=O)NCc2ccccc2)c1)N1CCN(Cc2ccccc2)CC1`, the Potency was inconclusive [inhibitor, partial curve, poor fit].
In the case of `COc1ccc(C2=NS(=O)(=O)N(C)C(C(=O)Nc3ccc(OC(F)(F)F)cc3)=C2)cc1`, the Potency was inconclusive [inhibitor, single point].
For `Nc1ccccc1Sc1ccc(C(F)(F)F)cc1[N+](=O)[O-]`, the Potency was inconclusive [inhibitor, single point].
For `O=C(COC(=O)c1cc2ccccc2oc1=O)Nc1ccc(F)cc1F`, the “activity change, negative = inhibition” value was inactive: 29.3%.
`O=C(Nc1ccccc1F)C(=Cc1sc(N2CCOCC2)nc1-c1ccccc1)C(=O)Nc1ccccc1F` was tested, and the Potency was inconclusive [inhibitor, full curve, poor fit].
For `CCN(C(=O)c1ccc(Br)cc1)c1ccccc1`, the Potency was inconclusive [inhibitor, single point].
In the case of `COc1ccc(C(=O)N/C(=C\c2ccc(-c3cccc([N+](=O)[O-])c3)o2)C(=O)NCCCN2CCOCC2)cc1`, the Potency was inconclusive [inhibitor, single point].
In the case of `COc1ccc(-c2nc3ccc(Cl)cn3c2CC(C)(C)C)cc1OC`, the Potency was inconclusive [inhibitor, single point].
For `COCCN1Cc2cccc(C(=O)Nc3ccc4c(c3)OCCO4)c2C1=O`, the Potency was inconclusive [inhibitor, partial curve, poor fit].
For `Cc1ccc2occ(/C=N/NC(=O)c3ccncc3)c(=O)c2c1`, the Potency was inconclusive [inhibitor, partial curve, poor fit].
For `COc1ccc(C(=O)CC(=O)C(=O)Nc2ccc(Cl)cc2)cc1`, the “activity change, negative = inhibition” value was inactive: -15.2%.
`O=C1CCCN1c1ccc(S(=O)(=O)Oc2cccc(Cl)c2)cc1[N+](=O)[O-]` was tested, and the Potency was inconclusive [inhibitor, single point].
In the case of `COc1ccc(-c2nc3scc(CCNS(=O)(=O)c4c(C)cc(C)cc4C)n3n2)cc1OC`, the “activity change, negative = inhibition” value was inactive: 17.9%.
With `CCCC(NCC(O)COc1ccc(-c2ccccc2)cc1)c1ccccc1` (stereo not given) the Potency was active: 12.6 µM.
In the case of `COc1ccc(/C(C)=N/NC(=O)CNC(=O)C(c2ccccc2)c2ccccc2)c(OC)c1`, the Potency was inconclusive [inhibitor, partial curve, poor fit].
With `Cc1ccccc1CC(=O)N1CCCC(CCC(=O)N2CCN(c3ccccn3)CC2)C1` (stereo not given) the Potency was inconclusive [inhibitor, partial curve, poor fit].
`COC(=O)c1c(C)[nH]c(C)c1-c1ccc(C)cc1` was tested, and the Potency was inconclusive [inhibitor, single point].
For `CCCc1cc(=O)[nH]c(Nc2ccccc2O)n1`, the “activity change, negative = inhibition” value was inactive: -13.1%.
For `O=C(NCCn1cc(SCc2ccccc2)c2ccccc21)c1cccs1`, the Potency was inconclusive [inhibitor, partial curve, poor fit].
In the case of `NS(=O)(=O)c1ccc(CCNCc2cc(Br)ccc2OCc2ccccc2)cc1`, the Potency was inconclusive [inhibitor, single point].
`CC1=CN(S(=O)(=O)c2ccc(C)cc2)C[C@@H]2[C@H]3CC[C@H](C3)[C@H]12` was tested, and the Potency was inconclusive [inhibitor, single point].
In the case of `CS(=O)(=O)C1=NSC2=NC(=O)/C(=C\c3cccn3-c3ccccc3Cl)C(=N)N21`, the Potency was inconclusive [inhibitor, single point].
`Cc1ccc(S(=O)(=O)N2C[C@H]3n4c(=O)ccc(=O)n4C[C@H](OC(=O)Nc4cccs4)[C@@]3(O)C2)cc1` was tested, and the Potency was inconclusive [inhibitor, partial curve].
`CCc1ccccc1N1CC(c2nc3ccccc3n2CCOc2ccc(Cl)c(C)c2)CC1=O` (stereo not given) was tested, and the Potency was inconclusive [inhibitor, full curve, poor fit].
`Cc1occc1-c1nnc(SCC(=O)Nc2ccccc2)n1C(C)c1ccccc1` (stereo not given) was tested, and the Potency was inconclusive [inhibitor, partial curve, poor fit].
`COc1ccc(S(=O)(=O)N(CC(=O)Nc2cc(C)cc(C)c2)c2ccc(Cl)cc2)cc1` was tested, and the “activity change, negative = inhibition” value was inactive: 13.6%.
With `CCn1c(C(=O)N2CCC(C(=O)N3CCN(c4ccc(OC)cc4)CC3)CC2)cc2sccc21` the Potency was inconclusive [inhibitor, single point].
In the case of `CC(O)(c1cccc(F)c1)c1nc(-c2cccc3cccnc23)cs1` (stereo not given), the Potency was inconclusive [inhibitor, single point].
For `Cc1ccc(O)c(NC(=S)NC(=O)CC(C)C)c1`, the Potency was inconclusive [inhibitor, single point].
With `CC(C)Oc1ccc(CNC(=O)c2ccc3nc(C(C)C)oc3c2)cc1` the “activity change, negative = inhibition” value was inactive: -5.57%.
For `O=C(NC1CCCCC1)C(c1ccc2ncccc2c1)N(Cc1ccc(F)cc1)C(=O)c1ccc2c(c1)OCCO2` (stereo not given), the Potency was inconclusive [inhibitor, single point].
In the case of `OC(COc1ccc(CN2CCSCC2)cc1)CN1CCCCC1` (stereo not given), the Potency was inconclusive [inhibitor, single point].
For `COc1ccc(CCNc2nc3ccc(C)cc3n3cnnc23)cc1OC`, the Potency was inconclusive [inhibitor, single point].
`COc1cc(OC)cc(-c2c(-c3ccc(F)cc3)c3cc(-c4ccc(OC)nc4)ccc3n2C)c1` was tested, and the Potency was inconclusive [inhibitor, partial curve, poor fit].
In the case of `Nc1cc(-c2ccc(OC(F)(F)F)cc2)nn1-c1ccc(Cl)c(Cl)c1`, the Potency was inconclusive [inhibitor, single point].
In the case of `O=C(c1cccn1-c1nnc(N2CCCCC2)s1)N1CCN(c2ccc(Cl)cc2)CC1`, the “activity change, negative = inhibition” value was inactive: -28.2%.
In the case of `CCCCn1nnnc1C(c1ccccc1)N1CCN(c2cccc(C(F)(F)F)n2)CC1` (stereo not given), the Potency was inconclusive [inhibitor, single point].
In the case of `FC(F)(F)c1cc(Cl)c2nc(-c3ccc(Cl)cc3)c(Cc3ccccc3)n2c1`, the “activity change, negative = inhibition” value was inactive: 32%.
With `Nc1[nH]n2c(=O)c3c(nc2c1N=Nc1ccc(Cl)cc1)CCCC3` the “activity change, negative = inhibition” value was inactive: 15.1%.
With `N#CC1C(=N)Cc2ccccc2-c2ccccc21` (stereo not given) the Potency was inconclusive [inhibitor, partial curve, poor fit].
